We go through 172 sequences from publication PMC6212790.

This is one part of the list. At the low end of the ranking, values are background and their order means little.

The target in this assay is T1, GST-Rok-C97-191 (UniProt O34857).
T1 sequence: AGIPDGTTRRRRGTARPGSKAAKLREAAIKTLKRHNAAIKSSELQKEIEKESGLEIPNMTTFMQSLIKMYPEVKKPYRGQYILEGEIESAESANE
As to the kind of experiment: protein binding microarray.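 Further: rank score from −0.5 (least bound) to 0.5 (best bound).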 To be noted: Rok is a gene silencer of Bacillus subtilis; high values mean tight binding; most listed sequences are background and not binding sites; double strand, one strand shown.
CCCAACCG: the binding signal is -0.0628 E-score.
In the case of CCCCGCCC it was -0.247 E-score.
In the case of CCCACTGC it was -0.294 E-score; in that of CCGTGCGC, -0.17 E-score; in that of CAGAGCCC, -0.213 E-score.
In the case of TAGCGCGA it was 0.256 E-score.
In turn, CCAGTTTC registered a binding signal of -0.105 E-score.
The value for TCCTGGAA was -0.0754 E-score; that for GGAGTGAA was -0.149 E-score; that for AGTATGAT was 0.282 E-score.
The sequence AACTCGTG showed a binding signal of 0.0143 E-score.
In the case of CCCCATAA it was -0.0637 E-score; in that of AGTGTCAT, -0.236 E-score.
As to TATAGGAA, the binding signal stood at 0.117 E-score.
As to AGAAGACT, the binding signal is -0.0198 E-score.
GATATAGA had a binding signal of 0.244 E-score.
AAGAGTCC returned a binding signal of -0.17 E-score.
The value for GGTTCCAC was -0.176 E-score.
The value for ATTACAAG was 0.141 E-score.
The value for AGGCTTCG was -0.125 E-score.
In turn, TCATGCAA showed a binding signal of -0.114 E-score.
The value for CTTCTGTC was -0.0833 E-score; that for AACACAGC was -0.0594 E-score.
The value for GATGTTAC was 0.23 E-score; that for AGAGGTCA was -0.249 E-score; that for ACATAGCG was 0.117 E-score.
For ATCGAACG, the binding signal is -0.0525 E-score.
In the case of GACGAGGC it was -0.258 E-score.
Take CACCAACC: the binding signal was -0.296 E-score.
Regarding TAACGACA, the binding signal was determined as 0.172 E-score.
In turn, CACCTATA yielded a binding signal of 0.223 E-score.
The value for CGATCCTC was -0.38 E-score; that for CGTGTATC was 0.136 E-score.
GAATGGGC registered a binding signal of -0.131 E-score.
Take CATTGTCA: the binding signal is -0.0136 E-score.
In the case of ACAAATTC it was 0.178 E-score.
The value for AGAAGACG was 0.0323 E-score; that for ACTGTTTC was -0.127 E-score.
In the case of ATAGTAGC it was 0.378 E-score.
As to GACCGCCA, the binding signal is -0.292 E-score.
For AATGGAGT, the binding signal was 0.077 E-score.
The value for ATTCCGAG was -0.0113 E-score; that for TACATACA was 0.253 E-score.
In the case of ATGAACAT it was 0.2 E-score; in that of CCAAAATA, 0.148 E-score; in that of CTCATAGA, 0.0293 E-score.
Sequence CTCACTGA had a binding signal of -0.129 E-score.
The value for CTAGAAAA was 0.312 E-score.
The value for CTGCGGTA was 0.26 E-score; that for GTACCACA was 0.0685 E-score.
The value for ATTGGGTA was 0.144 E-score; that for AAGACCTG was -0.0829 E-score.
Consider AAGCAGCT, for which the binding signal is -0.124 E-score.
CTCTTCTA: the binding signal was determined as 0.0541 E-score.
In the case of ACCGAAGC it was -0.0987 E-score.
The value for ACCTAAGG was -0.016 E-score; that for CCGTGAAA was -0.0516 E-score; that for GCCCGACA was -0.299 E-score.
As for CTAGATTA, the binding signal is 0.312 E-score.
In the case of CATCGTGA it was -0.0916 E-score; in that of AACGCATA, 0.0836 E-score; in that of AGATGTAG, 0.331 E-score.
Consider AAGCGCTC, for which the binding signal is -0.098 E-score.
In the case of ACCCCGCG it was -0.206 E-score.
The value for AAATGTCG was -0.0895 E-score.
In the case of AACTTGTG it was 0.0787 E-score; in that of TTGGAAAA, -0.00253 E-score.
ACTCCCCC registered a binding signal of -0.25 E-score.
In the case of AGCTGTAA it was 0.0485 E-score.
The sequence GACCAGAC showed a binding signal of -0.182 E-score.
The value for GTGTCTGA was -0.0244 E-score.
In the case of CCTGGATA it was -0.0341 E-score; in that of AATAACCA, 0.0952 E-score; in that of TAAGACGA, -0.141 E-score.
Regarding GGGTACTA, the binding signal was found to be 0.118 E-score.
The value for CGAGGTGC was -0.245 E-score; that for CACTGGTC was -0.298 E-score.
Take GCATGCTA: the binding signal turned out to be 0.0693 E-score.
As for ACTAGTGC, the binding signal was found to be 0.167 E-score.
In the case of ACCTATGA it was 0.0848 E-score.
The sequence ATCTGGTG showed a binding signal of -0.0403 E-score.
The value for AAAGACAA was -0.0239 E-score.
In turn, AGCATGTA yielded a binding signal of 0.263 E-score.
In the case of AGAACTTG it was 0.124 E-score; in that of GGCATCAC, 0.00707 E-score; in that of GACACGAA, -0.192 E-score.
As for CGTCAGGA, the binding signal is -0.21 E-score.
In the case of CAGTTCCG it was -0.148 E-score; in that of GTCTATAA, 0.0588 E-score; in that of CAGGCAAA, -0.171 E-score.
In the case of CTGCCCGA it was -0.19 E-score.
Take ACGGGTAT: the binding signal is -0.0487 E-score.
The value for AGAAAGAG was -0.0851 E-score; that for CACCGGGC was -0.309 E-score.
For the sequence GGACAACC, the binding signal is -0.164 E-score.
As to CTGAGAGA, the binding signal is -0.0135 E-score.
In the case of ACCTGGCT it was -0.198 E-score.
On to CCAAGGAG, for which the binding signal was -0.303 E-score.
In the case of AGAGCTCC it was -0.142 E-score; in that of GCTAAGAC, -0.164 E-score; in that of ATCCTATA, 0.21 E-score.
The value for AACCATGA was 0.081 E-score.
Regarding GAACCTCA, the binding signal was -0.138 E-score.
The value for ATGGAGAC was 0.0287 E-score; that for CTGGTCGA was -0.0276 E-score; that for ACATACGT was 0.00445 E-score.
In turn, CCTTGCGA displayed a binding signal of -0.27 E-score.
In the case of CAACCTCC it was -0.157 E-score; in that of CGCGGAAG, -0.191 E-score; in that of GGAGAGAC, -0.15 E-score.
In the case of ACACTAGG it was 0.0693 E-score.
On to CACTACGA, for which the binding signal turned out to be 0.123 E-score.
For the sequence GTAACGCA, the binding signal was -0.149 E-score.
The sequence GAGTAGAA displayed a binding signal of 0.279 E-score.
In the case of ATACTATG it was 0.254 E-score.
In the case of ACTAGGAG it was 0.0702 E-score.
Sequence CCACCCGC registered a binding signal of -0.234 E-score.
In the case of CAACACCA it was -0.0858 E-score; in that of CAAAGAAG, -0.145 E-score.
GCGGGTAA: the binding signal was -0.249 E-score.
Turning to CTAGCCGC, the binding signal is -0.192 E-score.
In the case of ACCATTTC it was 0.248 E-score; in that of AATGAGGG, -0.0785 E-score.
ACACCCAG yielded a binding signal of -0.238 E-score.
The sequence CTGTTTTC registered a binding signal of 0.111 E-score.
The value for ATTGCTAA was 0.199 E-score; that for GGTCGCCA was -0.245 E-score; that for ATCAAGTG was 0.188 E-score.
In the case of GCATACAA it was 0.0678 E-score.
The sequence GTACTCCA registered a binding signal of -0.0636 E-score.
The sequence CCGCGTCA yielded a binding signal of -0.0739 E-score.
In the case of AACGTTGG it was -0.174 E-score.
CTTGTCCC registered a binding signal of -0.25 E-score.
As for GCGTCGCA, the binding signal worked out at 0.0802 E-score.
In the case of CCTCACAA it was 0.0274 E-score.
In the case of AACGGCGG it was -0.015 E-score; in that of GAGCTGAA, -0.0846 E-score; in that of CCAAACGA, 0.0883 E-score.
Sequence AGTACTCA registered a binding signal of -0.0984 E-score.
In turn, AATCTTTC had a binding signal of 0.119 E-score.
In the case of CAGACGAG it was -0.236 E-score; in that of ATGCGCGG, -0.168 E-score.
The value for ATGACCGA was 0.146 E-score.
AAGTATGG displayed a binding signal of 0.128 E-score.
GAACTTCC came in with a binding signal of -0.145 E-score.
In the case of CGTCGCTC it was -0.161 E-score; in that of CAACAATA, 0.077 E-score; in that of ACTTGTAC, 0.208 E-score.
The value for CATCTAGG was -0.0436 E-score; that for AGTACGTC was -0.083 E-score; that for TAGAACAA was 0.216 E-score.
ATGGAGTG gave a binding signal of 0.0412 E-score.
In turn, GCGTGTGA gave a binding signal of -0.00575 E-score.
AACCCCAC gave a binding signal of -0.2 E-score.
In the case of CCGGACGA it was -0.115 E-score; in that of CAATCAGC, -0.197 E-score.
In the case of ACCATGAA it was -0.000363 E-score; in that of GGTTCCAA, -0.217 E-score.
The value for TCAAACGA was -0.00908 E-score.
Turning to GGGTGAAC, the binding signal stood at 0.0811 E-score.
The sequence CGATCCCC gave a binding signal of -0.302 E-score.
In the case of AAGCATTG it was 0.0589 E-score; in that of AAGGTCCA, -0.107 E-score; in that of CTTGAATA, -0.0952 E-score.
The value for GTGGCTCA was -0.084 E-score; that for CAGTGAAA was -0.0948 E-score; that for CGTCCAAA was -0.158 E-score.
As to AATGGCAA, the binding signal is 0.039 E-score.
Consider CTAAAGCC, for which the binding signal was -0.127 E-score.
In the case of GATGATAA it was 0.0651 E-score; in that of GTTAAGAA, 0.0875 E-score; in that of ATCTCTCG, -0.0528 E-score.
